Experimental data: PubChem BioAssay AID588855 (National Center for Advancing Translational Sciences (NCATS), 2011)
Among all 410,000 compounds or so, about 5,000 (1.2%) were called active. Inconclusive means that the source gave no clear call. Such entries were picked first, then a sample of the others. Calls follow the shape of the dose curve; as a rule, active = well fitted inhibition curve with a large enough effect; inconclusive = small, poorly fitted or top-dose-only effect; inactive = no such curve, though single readings can be large or run the other way. A potency beside an inconclusive call is a rough fit, not a confirmed value.

Experiment: qHTS for Inhibitors of TGF-b; also: nearly all actives have a fitted effect of over 65% in size
Details: HepG2 CAGA-GFP TGF-b/SMAD3 reporter, GFP fluorescence, 18 h, TGF-beta stimulated, 500 pg/mL final; series mostly up to 46.1 µM
How it was run: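 First, reporter cells (HEPG2 CAGA-GFP) rested 2 h at 37 degrees C. Next, compounds were pinned in and TGF-beta added to 500 pg/mL final. After 18 h, GFP was imaged per cell and summed per well.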
Potency is read from the fitted curve at half-maximal effect; tags tell the direction and shape of the fitted curve.

Structure (SMILES) | Potency
CCn1c(C(=O)NCc2ccc(OC)cc2)cc2sc(Cl)cc21 | inactive
CCOC(=O)C1=CCN(S(=O)(=O)c2ccccc2Br)C1c1ccccc1 (stereo not drawn) | inconclusive: 35.5 µM [inhibitor, single point]
COc1cccc(C(=O)Nc2nc3nc(C)c(C)c(=O)n3[nH]2)c1 | inactive
NC(=O)C(Cc1ccccc1)NC(=O)C12CC3CC(CC(C3)C1)C2 (stereo not drawn) | inconclusive: 0.112 µM [inhibitor, full curve, poor fit]
CCn1cc(C(=O)N2CCN(c3ccccc3)CC2)c(=O)c2cc(S(=O)(=O)N3CCCC3)ccc21 | inactive
O=C(CCCn1c(=S)[nH]c2cc3c(cc2c1=O)OCO3)N1CCN(c2ccc(F)cc2)CC1 | inconclusive: 6.31 µM [inhibitor, single point]
COc1cc(/C=N/NC(=O)c2cccc(S(=O)(=O)N3CCCC3)c2)cc(OC)c1O | inactive
NNC(=O)c1ccc(Oc2cc(Cl)cc(Cl)c2)o1 | inconclusive: 15.8 µM [inhibitor, single point]
COc1cc2c(cc1OC)C(C)N(CCc1ccc(Cl)cc1)CC2 (stereo not drawn) | inconclusive: 35.5 µM [inhibitor, single point]
COCC(C)NC(=O)c1cc2cccc([N+](=O)[O-])c2[nH]1 (stereo not drawn) | inactive
Cc1cccc(C)c1NC(=O)CCS(=O)(=O)c1ccc2c(c1)CC(C)N2C(=O)C1CC1 (stereo not drawn) | inactive
CCOc1ccc(NC(=O)Cn2nnc(C(=O)NCc3cccs3)c2N)cc1 | inactive
CC(C)N1CCc2c(sc(NC(=O)C3CCCCC3)c2C(N)=O)C1 | inactive
CN(CC(=O)N1CCN(Cc2ccccc2)CC1)S(=O)(=O)c1cccc2nsnc12 | inactive
Cc1cc(C)nc(SCc2ccc(C(=O)N/N=C3\CC(C)CC(C)(C)C3)cc2)n1 (stereo not drawn) | inconclusive: 35.5 µM [inhibitor, single point]
COc1ccc2c(c1)CCc1c(C(=O)Nc3c(C)nn(Cc4ccc(Cl)cc4)c3C)noc1-2 | inactive
O=C(NCc1ccccc1F)C1CC(=O)N(Cc2ccco2)C1 (stereo not drawn) | inconclusive: 3.16 µM [inhibitor, single point]
O=C(CSC1=NS(=O)(=O)c2ccccc2N1)c1ccccc1 | inconclusive: 28.2 µM [inhibitor, single point]
O=C(OCc1ccccc1)N1CCC2CC1c1cc(N3CCNCC3)ccc12 (stereo not drawn) | inactive
CN(CCc1ccccc1)c1cc2c(c3c1ccn3C)C1CCC2C1 (stereo not drawn) | inactive
O=C1CC(N2CCN(Cc3ccc4c(c3)OCO4)CC2)C(=O)N1c1ccccc1 (stereo not drawn) | inconclusive: 35.5 µM [inhibitor, single point]
CCOc1ccc(S(=O)(=O)N(C(=O)c2ccco2)c2cc3sc(=O)oc3c3ccccc23)cc1 | inconclusive: 11.2 µM [inhibitor, partial curve, poor fit]
O=C(C(Cl)Cl)N1c2ccccc2OCC1c1ccccc1 (stereo not drawn) | inconclusive: 8.91 µM [inhibitor, partial curve, poor fit]
Cc1ccccc1CC1(C)C(=O)Nc2ccc(S(=O)(=O)NC3CCCCC3)cc21 (stereo not drawn) | inconclusive: 12.6 µM [inhibitor, single point]
COc1ccc(NC(=O)Nc2nc(C(N)CC(C)C)cs2)cc1 (stereo not drawn) | inconclusive: 11.2 µM [inhibitor, partial curve]

Structure (SMILES) | Potency
COc1ccc(CCN=c2c([N+](=O)[O-])nn(-c3cccc(C)c3)n2O)cc1OC | inconclusive: 25.1 µM [inhibitor, partial curve, poor fit]
O=C(C[n+]1ccc2ccccc2c1)c1ccc(F)cc1 | inconclusive: 0.708 µM [inhibitor, full curve]
CN(C)c1ccc(NC2=C([N+](=O)[O-])CS(=O)(=O)C2)cc1 | inconclusive: 20 µM [inhibitor, single point]
Cc1nn(-c2ccccc2)c(C)c1NC(=O)COC(=O)c1cc(Cl)ccc1O | inconclusive: 3.98 µM [inhibitor, single point]
Cc1nnc(SCC(=O)N2c3ccccc3C(C)(c3ccccc3)CC2(C)C)s1 (stereo not drawn) | inconclusive: 31.6 µM [inhibitor, single point]
Cc1sc2ncnc(SC(C)C#N)c2c1C (stereo not drawn) | inconclusive: 22.4 µM [inhibitor, single point]
O=C(CSCc1ccccc1Cl)NCc1ccc(Cl)c(Cl)c1 | inconclusive: 35.5 µM [inhibitor, single point]
CC1=C(C(=O)N2CCOCC2)CC(CC(=O)NC(c2ccccc2)c2ccccc2)C(=O)N1Cc1ccc(C(C)(C)C)cc1 (stereo not drawn) | inconclusive: 35.5 µM [inhibitor, single point]
COc1ccc(OCC(O)Cn2c(Br)nc3c2c(=O)[nH]c(=O)n3C)cc1 (stereo not drawn) | inconclusive: 35.5 µM [inhibitor, single point]
COc1cccc(NC(=O)CSc2nccn2Cc2ccc3c(c2)OCO3)c1 | inactive
CCOc1cc(/C=N/NC(=O)c2cccnc2)ccc1OC(=O)c1ccco1 | inactive
C=CCNC(=S)NNC(=O)c1ccc(OCC(C)C)cc1 | inconclusive: 35.5 µM [inhibitor, single point]
O=C(CN1CCN(S(=O)(=O)N2CCCCC2)CC1)Nc1cc(Cl)cc(Cl)c1 | inconclusive: 11.2 µM [inhibitor, single point]
COc1ccc(NS(=O)(=O)c2ccc(NC(=S)NC(=O)CC(C)C)cc2)cc1 | inconclusive: 35.5 µM [inhibitor, single point]
O=C(Nc1ccc(SC(F)F)cc1)C1=COCCO1 | inactive
Cc1ccc(C)c(Cn2c3ccccc3c3cnn(CC(=O)NCC(C)c4ccccc4)c(=O)c32)c1 (stereo not drawn) | inactive
Cc1cc(C(=O)N2CCN(c3ccc(F)cc3)CC2)on1 | inactive
O=C(O)c1ccccc1-c1ccccc1C(=O)Nc1ccc2c(c1)C(O)c1ccccc1-2 (stereo not drawn) | inactive
COc1ccccc1-c1noc(-c2ccccc2C(=O)Nc2cccnc2)n1 | inactive
CN(C)C(CNc1ncnc2sccc12)c1cccs1 (stereo not drawn) | inconclusive: 6.31 µM [inhibitor, single point]
CC(=O)c1cccc(NC(=O)Cn2c(=O)oc3cc(S(=O)(=O)NC4CCCC4)ccc32)c1 | inconclusive: 1.41 µM [inhibitor, partial curve]
CCOC(=O)CSc1ccc2nnc(-c3ccncc3)n2n1 | inconclusive: 17.8 µM [inhibitor, single point]
O=C1C=C(c2ccccc2)C(=O)N1Nc1ccccc1 | inconclusive: 35.5 µM [inhibitor, single point]
COc1ccccc1NC(=O)Cn1cc(C(=O)c2ccncc2)c(=O)c2cc(C)ccc21 | inactive
Cn1c(-c2ccccc2)cnc1SCC(=O)N1CCCc2ccccc21 | inactive

Structure (SMILES) | Potency
c1ccc(COc2cccc(-c3cc4nc(NCc5cccs5)ccn4n3)c2)cc1 | inconclusive: 35.5 µM [inhibitor, single point]
COCCNC(=S)N(CCc1c(C)[nH]c2ccc(F)cc12)Cc1cccnc1 | inactive
Cc1ccc(-c2noc(CNCCCN(C)C)n2)cc1 | inconclusive: 11.2 µM [inhibitor, partial curve]
COC(=O)c1sc(NC(=O)c2ccc([N+](=O)[O-])o2)c(C#N)c1C | active: 4.47 µM
Cc1sc(NC(=O)C2CCCC2)c(C#N)c1C | inconclusive: 3.16 µM [inhibitor, single point]
Cc1ccc2nc(-c3cccc(Cl)c3)c(Nc3ccc4c(c3)OCO4)n2c1 | inactive
Cn1cccc1/C=C1\CCC/C(=C\c2cccn2C)C1=O | inactive
CC(C)C(=O)Nc1ccc(Oc2ccc3c(c2)C(=O)NC3=O)cc1 | inconclusive: 22.4 µM [inhibitor, single point]
CCN1C(=O)/C(=C\C=C2/C=CC=CN2CC)SC1=S | inconclusive: 35.5 µM [inhibitor, single point]
O=C1C[C@@H](c2ccccc2)Oc2cc(O)cc(O)c21 | inactive
COc1cccc(-c2cc(C(=O)Nc3c(C)nn(Cc4ccccc4)c3C)no2)c1 | inactive
Clc1nc2c(-c3ccccc3)nnn2c2ccccc12 | inconclusive: 7.94 µM [inhibitor, partial curve, poor fit]
CCc1ccc(-c2nc(SCC(=O)NCC3CCCO3)c(-c3ccc(F)cc3)[nH]2)cc1 (stereo not drawn) | inconclusive: 4.47 µM [inhibitor, full curve, poor fit]
O=C(O)c1ccc(-n2c(/C=C/c3ccccc3)nc3ccccc3c2=O)cc1 | inactive
CCc1nc2c(OCCOC)cccn2c1N(C)C(=O)Nc1ccccc1OC | inactive
Cc1ccc(CNC(=O)C2(C(F)(F)F)C/C(=C\Cc3ccccc3)CCCO2)o1 (stereo not drawn) | inconclusive: 35.5 µM [inhibitor, single point]
CC(=O)N1CCOc2ccc(S(=O)(=O)NCc3ccc(Cl)cc3)cc21 | inactive
O=C(CCC(=O)N1CCN(S(=O)(=O)c2ccc(Cl)cc2)CC1)Nc1cccc(Br)c1 | inactive
COc1ccc(C(=O)Nc2ccc(C3CC3(Cl)Cl)cc2)cc1 (stereo not drawn) | inconclusive: 35.5 µM [inhibitor, single point]
Cc1cccc(CCNC(=O)CNS(=O)(=O)c2ccc3nc(C)sc3c2)c1 | inactive
CC1(C)c2[nH]c3ccccc3c2C[C@H]2C(=O)N(Cc3ccc(F)cc3)C(=O)N21 | inconclusive: 22.4 µM [inhibitor, single point]
O=S(=O)(Nc1ccc(-c2ccc(N3CCCCCC3)nn2)cc1)c1cccc(C(F)(F)F)c1 | inconclusive: 35.5 µM [inhibitor, single point]
COc1ccc(CCNc2nc(SCc3ccc(F)cc3)nc3ccccc23)cc1OC | inactive
